Among the data in paper PMC5892938 are binding signal (log2 fold change) values, retold here.

This is one part of the list. At the low end of the ranking, values are background and their order means little.

The target in the test is GST-SBP-SLBP (stem-loop binding protein) (UniProt Q14493). Nature of the test: targeted RNA Bind-n-Seq.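 Note: DESeq read counts versus GST-SBP nonspecific binding control pulldown.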 The following applies: RBNS binding buffer: 25 mM Tris pH 7.5, 150 mM KCl, 3 mM MgCl2, 0.1% Tween, 0.5 mg/mL BSA, 1 mM DTT; 27 nM protein, 750 pM RNA pool; temperature not stated; high values mean tight binding.
In the case of “GGUCACGUCUCAAUCAACUCAGUUCCAGGAGUUUUCUCCUGCUUUCUCAACAGCUCGCAGUCAAG”, the binding signal (log2 fold change) was -0.0446.
With “GGUCACGUCUCAAUCAACUCAUUCCCCAGGGAAAACCCUGGCAAACUCAACAGCUCGCAGUCAAG” the figure was 0.0758; with “GGUCACGUCUCAAUCAACUCCAACGAGGGGGGGAAAACCCCUUUACCCUCCAAUUCAACAGCUCGCAGUCAAG”, -0.07.
With “GGUCACGUCUCAAUCAACUCUUCCCCAGGAGUUUACUCCUGUAUACUCAACAGCUCGCAGUCAAG” the figure was 0.114; with “GGUCACGUCUCAAUCAACUCAAAAGAGGGGGGGAAAACCCCUUUACCCUCCAUUUCAACAGCUCGCAGUCAAG”, 0.0289; with “GGUCACGUCUCAAUCAACUCUAUCGCAGGAGUUUACUCCUGGUUUUUCAACAGCUCGCAGUCAAG”, -0.00203.
Under “GGUCACGUCUCAAUCAACUCAGUCUCCAGGGAAAGCCCUGGCUUAUUCAACAGCUCGCAGUCAAG” stands -0.0508.
For “GGUCACGUCUCAAUCAACUCUACGGCAGGAGUUUUCUCCUGGAUAUUCAACAGCUCGCAGUCAAG”, the binding signal (log2 fold change) came to 0.0793.
With “GGUCACGUCUCAAUCAACUCAACAGAGGGGGGGAAAACCCCUUUACCCUCAUACUCAACAGCUCGCAGUCAAG” the figure was -0.18.
With “GGUCACGUCUCAAUCAACUCUCCAGAGGGGGGGAAAACCCCUUUACCCUCAUUCUCAACAGCUCGCAGUCAAG” the figure was -0.0688; with “GGUCACGUCUCAAUCAACUCUUCCUCCAGGGAAAUCCCUGGUAAACUCAACAGCUCGCAGUCAAG”, -0.188; with “GGUCACGUCUCAAUCAACUCAUUUCCAGGAGUUUACUCCUGUAUACUCAACAGCUCGCAGUCAAG”, 0.00949.
Under “GGUCACGUCUCAAUCAACUCUAUUCCAGGAGUUUCCUCCUGCUAUCUCAACAGCUCGCAGUCAAG” stands 0.246; under “GGUCACGUCUCAAUCAACUCAAAAGAGGGGGGGAAAACCCCUUUACCCUCACACUCAACAGCUCGCAGUCAAG”, -0.038; under “GGUCACGUCUCAAUCAACUCUUCCUCAGGAGUUUCCUCCUGUAAUGUCAACAGCUCGCAGUCAAG”, 0.16.
As to “GGUCACGUCUCAAUCAACUCUCCAGAGGGGGGGAAAACCCCUUUGCCCUCCAAUUCAACAGCUCGCAGUCAAG”, the binding signal (log2 fold change) is -0.433.
With “GGUCACGUCUCAAUCAACUCAACUCCAGGAGUUUCCUCCUGUAAUUUCAACAGCUCGCAGUCAAG” the figure was -0.306; with “GGUCACGUCUCAAUCAACUCUUUCUCAGGAGUUUACUCCUGUUAACUCAACAGCUCGCAGUCAAG”, -0.0782.
Take “GGUCACGUCUCAAUCAACUCUACUUCAGGAGUUUUCUCCUGUUAAUUCAACAGCUCGCAGUCAAG”: the binding signal (log2 fold change) is -0.00184.
With “GGUCACGUCUCAAUCAACUCAUCGCCAGGAGUUUACUCCUGUUUUUUCAACAGCUCGCAGUCAAG” the figure was -0.119.
As for “GGUCACGUCUCAAUCAACUCUUUAGAGGGGGGGAAAACCCCUUUACCCUCGUCCUCAACAGCUCGCAGUCAAG”, the binding signal (log2 fold change) worked out at 0.135.
Under “GGUCACGUCUCAAUCAACUCAUGUCCAGGAGUUUCCUCCUGCAAUCUCAACAGCUCGCAGUCAAG” stands 0.0967; under “GGUCACGUCUCAAUCAACUCAAUCCCAGGAGUUUGCUCCUGUAUACUCAACAGCUCGCAGUCAAG”, -0.0166; under “GGUCACGUCUCAAUCAACUCUAUUUCCAGGGAAAUCCCUGGUUUAUUCAACAGCUCGCAGUCAAG”, -0.302.
With “GGUCACGUCUCAAUCAACUCAAUCCCCAGGGAAAACCCUGGCAAUUUCAACAGCUCGCAGUCAAG” the figure was -0.032.
Under “GGUCACGUCUCAAUCAACUCAAUUUCCAGGGAAAGCCCUGGCAUUUUCAACAGCUCGCAGUCAAG” stands 0.185; under “GGUCACGUCUCAAUCAACUCAUUCUCCAGGGAAAACCCUGGCUAUUUCAACAGCUCGCAGUCAAG”, 0.146; under “GGUCACGUCUCAAUCAACUCUACUCCCAGGGAAAGCCCUGGUAUUUUCAACAGCUCGCAGUCAAG”, -0.0722.
As to “GGUCACGUCUCAAUCAACUCAUCGCCAGGAGUUUUCUCCUGCUUAUUCAACAGCUCGCAGUCAAG”, the binding signal (log2 fold change) is -0.177.
Under “GGUCACGUCUCAAUCAACUCUAUCCCCAGGGAAAGCCCUGGCUAUUUCAACAGCUCGCAGUCAAG” stands -0.0591.
Under “GGUCACGUCUCAAUCAACUCAUCUUCAGGAGUUUGCUCCUGUUUACUCAACAGCUCGCAGUCAAG” stands 0.0113; under “GGUCACGUCUCAAUCAACUCAAUCUCAGGAGUUUACUCCUGUAUACUCAACAGCUCGCAGUCAAG”, -0.0109.
With “GGUCACGUCUCAAUCAACUCCUAAGAGGGGGGGAAAACCCCUUUACCCUCAUCCUCAACAGCUCGCAGUCAAG” the figure was -0.0157; with “GGUCACGUCUCAAUCAACUCUUCCCCAGGAGUUUUCUCCUGUUAUCUCAACAGCUCGCAGUCAAG”, 0.0606.
As for “GGUCACGUCUCAAUCAACUCUUCGCCCAGGGAAAACCCUGGUUAUUUCAACAGCUCGCAGUCAAG”, the binding signal (log2 fold change) was found to be 0.0308.
In the case of “GGUCACGUCUCAAUCAACUCUACUCCCAGGGAAAACCCUGGUAAUUUCAACAGCUCGCAGUCAAG”, the binding signal (log2 fold change) stood at 0.454.
For the sequence “GGUCACGUCUCAAUCAACUCAACUUCCAGGGAAACCCCUGGUUUUUUCAACAGCUCGCAGUCAAG”, the binding signal (log2 fold change) was found to be 0.178.
